Reference: ChEMBL document CHEMBL4888484, “Replenishing the malaria drug discovery pipeline: Screening and hit evaluation of the MMV Hit Generation Library 1 (HGL1) against asexual blood stage Plasmodium falciparum ,using a nano luciferase reporter read-out” (2022)
Out of some 150,000 compounds screened, about 540 (0.36%) showed an effect of 50% or more. The list shows a part of the results.

Tested on: Plasmodium falciparum
Test: Primary screen in NF54 nanoGlo assay, in single point, at 2uM, 72h; a lower Z score goes with more inhibition
Type: functional, Erythrocyte
Settings: timepoint 72 hour

Point of comparison: `Cc1cccnc1N1CC[C@H](NC(=O)c2ccccc2)[C@@H](O)C1`, “% Inhibition” value -11%. Against it:
- O=C(Nc1ccc2c(c1)OCCO2)N[C@H]1CC(=O)N(c2ccc3c(c2)OCCO3)C1 — higher, 15%
- CCO[C@H]1COC[C@@H]1n1cnc2c(Cl)ccc(Cl)c2c1=O — lower, -14%
- CCC[C@H]1CN(C(=O)c2ccc(N3CCCC3=O)cc2)C[C@@H]1N(C)C — lower, -17%
- COc1cn(CC(=O)NC2CCCCCCC2)c(CO)cc1=O — higher, 35%
- Cc1cc(C)n(CCC(=O)Nc2c(C)cnn2[C@@H](C)C2CC2)c(=O)n1 — higher, -7%
- O=C(NC[C@@H](c1ccco1)n1cccn1)c1ccccc1F — higher, -8%
- CCn1c(Cn2nc(C)c(C)c(C#N)c2=O)nc2cc(S(=O)(=O)N3CCCCC3)ccc21 — lower, -15%
- CC(NC(=O)c1ccc(-c2cnccn2)cc1)C(O)Cc1ccccc1 (stereo not given) — higher, -2%
- Cc1cc(-c2cccs2)nn1CCN — higher, -3%
- N#Cc1ccc(O)c(NC(=O)c2snc(O)c2Cl)c1 — higher, 42%
- COCC[C@@H](CO)NC(=O)Nc1cc(-c2cccc(F)c2)on1 — higher, -3%
- CC(C)CCN1C[C@]23C=C[C@H](O2)C(C(=O)N2CCc4n[nH]cc4C2)C3C1=O (stereo not given in full) — lower, -20%
- CS(=O)(=O)Nc1ccc(F)c(NC(=O)N(Cc2nccs2)C2CC2)c1 — lower, -12%
- O=C(N[C@H]1CCN(Cc2cscn2)C[C@@H]1O)c1cnc2c(c1)CCCC2 — higher, 2%
- OC[C@@H]1CC[C@H](CNCc2ccc(OC(F)F)c(F)c2)O1 — higher, 2%
- CN1C[C@@H](Nc2ccc(C#N)cc2F)CCC1=O — higher, -5%
- CC[C@@H](Cn1c(=O)[nH]c2ccccc2c1=O)N1CCCC1 — higher, 6%
- CC(C)(C)OCC(=O)N(Cc1ccccn1)c1ccc(F)cc1 — higher, 10%
- CC1CCCC(C)C1NS(=O)(=O)c1ccnn1C (stereo not given) — higher, 3%
- O=C(NCc1ccc2[nH]cnc2c1)C1(N2CCCC2)CCCC1 — lower, -17%
- CO[C@H]1CCCC[C@@H]1NC(=O)CCc1ccc(C)cc1C — lower, -15%
- C#CCC1(C(=O)N2CCCC(CNC(=O)CCC)C2)CCCN1C(=O)OC(C)(C)C (stereo not given) — higher, -6%
- FC(F)(F)COCCCOc1nnc2ccccn12 — higher, -9%
- COc1ccc(OCC(=O)NCC(C)C)c(C(N)=O)c1 — higher, -10%
- Cc1ccc(CN(C)c2ncnc3nc(N)ccc23)cc1 — higher, -7%
- CC1CCC(O)(CS(=O)(=O)Cc2csc(C3CC3)n2)CC1 (stereo not given) — lower, -12%
- COc1cc(CN(C)Cc2cnccn2)cc(Cl)c1OCC(N)=O — lower, -17%
- O=C(CC1CCN(C(=O)c2nnc(C(=O)Nc3ccccc3)s2)CC1)NCc1ccccn1 — lower, -20%
- Cc1ncsc1C(=O)N1CC(=O)Nc2cnccc21 — higher, -1%
- CCCOc1cc(CNS(=O)(=O)CC(CC)CC)ccn1 — higher, 1%
- CC[C@H]1CN(C)CCCN1C(=O)c1cc(C)n(-c2cccc(F)c2)n1 — higher, 2%
- CC(C)(C)c1coc(CNC(=O)NCc2noc3c2CCCC3)n1 — lower, -15%
- CCNc1nc(C(=O)N2CCO[C@H](c3ccsc3)C2)cs1 — higher, -9%
- O=C(O)Cc1ccc(/C=C/C2CCCCC2)nc1 — higher, -6%
- Cn1cncc1[C@H]1C[C@@H]1c1nc(-c2ccoc2)no1 — lower, -13%
- Cn1cccc(C(=O)Nc2nc(C3CC3)cs2)c1=O — higher, -7%
- O=C(c1csc2c1CCCC2)N1CCN(Cc2ccc3c(c2)OCO3)CC1 — higher, -3%
- Cn1nc(C2CCCCC2)cc1[C@H]1CN2CC[C@H]1C[C@@H]2CNC(=O)CC(C)(C)CC(=O)O — higher, 9%
- COCc1nc(N2CCC(c3n[nH]cc3C)CC2)cc([C@H]2C[C@@H](N)C2)n1 — higher, -6%
- CCN(CCn1cccn1)c1nncc(-c2cc3ccccc3o2)n1 — lower, -23%
- O=C(c1ccc(Br)o1)n1cccn1 — higher, -7%
- Cc1noc(C(C)NC(=O)C2CCCN2c2ncnc3sccc23)n1 (stereo not given) — higher, 3%
- CC(C)(C)C(=O)NC[C@H]1CCN(C/C=C/c2ccccc2)C1 — higher, 4%
- COCCN1CCCn2nc([C@H]3CCCN(Cc4cc(F)cc(F)c4)C3)cc2C1=O — lower, -18%
- COc1ccc(Cl)cc1NC(=O)c1cn2c(n1)COCC2 — the same, -11%
- O=C(NC1Cc2ccccc2C1)c1ccc2c(c1)OCCO2 — lower, -13%
- CCOC(=O)Cc1csc(NC(=O)CCc2c(C)[nH]c(=O)n(C)c2=O)n1 — higher, 2%
- Cc1ccc(C(=O)N2C[C@@H](CO)[C@H](NC(=O)c3ccccc3)C2)cc1F — higher, -8%
- CC(C)[C@H]1C=CCN1C(=O)c1ccc(CCC(C)(C)O)cc1 — higher, -2%
- C[C@H]1CN(C2=Nc3ccc(C(F)(F)F)cc3Oc3ccccc32)CCN1C(=O)C1CCCCC1 — higher, -10%
- CCOc1ccc(OCc2snnc2C)cc1 — higher, 2%
- CC(C)(C)c1ccc(C2(NS(=O)(=O)CC#N)CC2)cc1 — lower, -15%
- Cc1cnc(NC2CCC(O)CC2)nc1NC1CCC(O)CC1 (stereo not given) — higher, 8%
- CCn1c(-c2ccccc2)nnc1N1CCN(C(C)=O)C[C@@H]1C — higher, -4%

Point of comparison: `O=C(c1ccc(Br)o1)n1cccn1`, Z score 0.83. Against it:
- O=C(Nc1ccc2c(c1)OCCO2)N[C@H]1CC(=O)N(c2ccc3c(c2)OCCO3)C1 — lower, -1.95
- CCO[C@H]1COC[C@@H]1n1cnc2c(Cl)ccc(Cl)c2c1=O — higher, 2.34
- CCC[C@H]1CN(C(=O)c2ccc(N3CCCC3=O)cc2)C[C@@H]1N(C)C — higher, 2.86
- Cc1cccnc1N1CC[C@H](NC(=O)c2ccccc2)[C@@H](O)C1 — higher, 1.06
- COc1cn(CC(=O)NC2CCCCCCC2)c(CO)cc1=O — lower, -3.99
- Cc1cc(C)n(CCC(=O)Nc2c(C)cnn2[C@@H](C)C2CC2)c(=O)n1 — higher, 0.98
- O=C(NC[C@@H](c1ccco1)n1cccn1)c1ccccc1F — higher, 1.09
- CCn1c(Cn2nc(C)c(C)c(C#N)c2=O)nc2cc(S(=O)(=O)N3CCCCC3)ccc21 — higher, 2.39
- CC(NC(=O)c1ccc(-c2cnccn2)cc1)C(O)Cc1ccccc1 (stereo not given) — lower, 0.36
- Cc1cc(-c2cccs2)nn1CCN — lower, 0.33
- N#Cc1ccc(O)c(NC(=O)c2snc(O)c2Cl)c1 — lower, -6.09
- COCC[C@@H](CO)NC(=O)Nc1cc(-c2cccc(F)c2)on1 — lower, 0.44
- CC(C)CCN1C[C@]23C=C[C@H](O2)C(C(=O)N2CCc4n[nH]cc4C2)C3C1=O (stereo not given in full) — higher, 2.32
- CS(=O)(=O)Nc1ccc(F)c(NC(=O)N(Cc2nccs2)C2CC2)c1 — higher, 2.29
- O=C(N[C@H]1CCN(Cc2cscn2)C[C@@H]1O)c1cnc2c(c1)CCCC2 — lower, -0.16
- OC[C@@H]1CC[C@H](CNCc2ccc(OC(F)F)c(F)c2)O1 — lower, -0.26
- CN1C[C@@H](Nc2ccc(C#N)cc2F)CCC1=O — lower, 0.64
- CC[C@@H](Cn1c(=O)[nH]c2ccccc2c1=O)N1CCCC1 — lower, -0.92
- CC(C)(C)OCC(=O)N(Cc1ccccn1)c1ccc(F)cc1 — lower, -1.04
- CC1CCCC(C)C1NS(=O)(=O)c1ccnn1C (stereo not given) — lower, -0.48
- O=C(NCc1ccc2[nH]cnc2c1)C1(N2CCCC2)CCCC1 — higher, 3.1
- CO[C@H]1CCCC[C@@H]1NC(=O)CCc1ccc(C)cc1C — higher, 2.78
- C#CCC1(C(=O)N2CCCC(CNC(=O)CCC)C2)CCCN1C(=O)OC(C)(C)C (stereo not given) — lower, 0.75
- FC(F)(F)COCCCOc1nnc2ccccn12 — higher, 1.21
- COc1ccc(OCC(=O)NCC(C)C)c(C(N)=O)c1 — higher, 0.87
- Cc1ccc(CN(C)c2ncnc3nc(N)ccc23)cc1 — lower, 0.7
- CC1CCC(O)(CS(=O)(=O)Cc2csc(C3CC3)n2)CC1 (stereo not given) — higher, 1.94
- COc1cc(CN(C)Cc2cnccn2)cc(Cl)c1OCC(N)=O — higher, 2.65
- O=C(CC1CCN(C(=O)c2nnc(C(=O)Nc3ccccc3)s2)CC1)NCc1ccccn1 — higher, 1.74
- Cc1ncsc1C(=O)N1CC(=O)Nc2cnccc21 — lower, 0.11
- CCCOc1cc(CNS(=O)(=O)CC(CC)CC)ccn1 — lower, -0.12
- CC[C@H]1CN(C)CCCN1C(=O)c1cc(C)n(-c2cccc(F)c2)n1 — lower, -0.44
- CC(C)(C)c1coc(CNC(=O)NCc2noc3c2CCCC3)n1 — higher, 2.94
- CCNc1nc(C(=O)N2CCO[C@H](c3ccsc3)C2)cs1 — higher, 1.5
- O=C(O)Cc1ccc(/C=C/C2CCCCC2)nc1 — higher, 0.92
- Cn1cncc1[C@H]1C[C@@H]1c1nc(-c2ccoc2)no1 — higher, 1.71
- Cn1cccc(C(=O)Nc2nc(C3CC3)cs2)c1=O — lower, 0.78
- O=C(c1csc2c1CCCC2)N1CCN(Cc2ccc3c(c2)OCO3)CC1 — lower, 0.47
- Cn1nc(C2CCCCC2)cc1[C@H]1CN2CC[C@H]1C[C@@H]2CNC(=O)CC(C)(C)CC(=O)O — lower, -1.01
- COCc1nc(N2CCC(c3n[nH]cc3C)CC2)cc([C@H]2C[C@@H](N)C2)n1 — higher, 0.99
- CCN(CCn1cccn1)c1nncc(-c2cc3ccccc3o2)n1 — higher, 2.98
- Cc1noc(C(C)NC(=O)C2CCCN2c2ncnc3sccc23)n1 (stereo not given) — lower, -0.44
- CC(C)(C)C(=O)NC[C@H]1CCN(C/C=C/c2ccccc2)C1 — lower, -0.56
- COCCN1CCCn2nc([C@H]3CCCN(Cc4cc(F)cc(F)c4)C3)cc2C1=O — higher, 3.35
- COc1ccc(Cl)cc1NC(=O)c1cn2c(n1)COCC2 — higher, 1.72
- O=C(NC1Cc2ccccc2C1)c1ccc2c(c1)OCCO2 — higher, 1.28
- CCOC(=O)Cc1csc(NC(=O)CCc2c(C)[nH]c(=O)n(C)c2=O)n1 — lower, -0.25
- Cc1ccc(C(=O)N2C[C@@H](CO)[C@H](NC(=O)c3ccccc3)C2)cc1F — higher, 1.32
- CC(C)[C@H]1C=CCN1C(=O)c1ccc(CCC(C)(C)O)cc1 — lower, 0.32
- C[C@H]1CN(C2=Nc3ccc(C(F)(F)F)cc3Oc3ccccc32)CCN1C(=O)C1CCCCC1 — higher, 0.96
- CCOc1ccc(OCc2snnc2C)cc1 — lower, -0.39
- CC(C)(C)c1ccc(C2(NS(=O)(=O)CC#N)CC2)cc1 — higher, 1.3
- Cc1cnc(NC2CCC(O)CC2)nc1NC1CCC(O)CC1 (stereo not given) — lower, -1.06
- CCn1c(-c2ccccc2)nnc1N1CCN(C(C)=O)C[C@@H]1C — the same, 0.83
